These are yes or no findings as the source states them, for the method shown. In cells and extracts the contact can be indirect. Some entries that bind do so weakly or less than the wild type. For some assays here: Sequences can lack the tags named with a protein.
Tests used:
[1] = molecular target: T1, GST-fused TAK1 (pEBG-TAK1) (human) (UniProt O43318); assay: pull-down; GST pull-down from HEK 293 cells cotransfected with TAK1, TAB1, TAB2 or TAB3 and with or without TXNIP (Figure 3F, Figure S3C,D)
T1 sequence: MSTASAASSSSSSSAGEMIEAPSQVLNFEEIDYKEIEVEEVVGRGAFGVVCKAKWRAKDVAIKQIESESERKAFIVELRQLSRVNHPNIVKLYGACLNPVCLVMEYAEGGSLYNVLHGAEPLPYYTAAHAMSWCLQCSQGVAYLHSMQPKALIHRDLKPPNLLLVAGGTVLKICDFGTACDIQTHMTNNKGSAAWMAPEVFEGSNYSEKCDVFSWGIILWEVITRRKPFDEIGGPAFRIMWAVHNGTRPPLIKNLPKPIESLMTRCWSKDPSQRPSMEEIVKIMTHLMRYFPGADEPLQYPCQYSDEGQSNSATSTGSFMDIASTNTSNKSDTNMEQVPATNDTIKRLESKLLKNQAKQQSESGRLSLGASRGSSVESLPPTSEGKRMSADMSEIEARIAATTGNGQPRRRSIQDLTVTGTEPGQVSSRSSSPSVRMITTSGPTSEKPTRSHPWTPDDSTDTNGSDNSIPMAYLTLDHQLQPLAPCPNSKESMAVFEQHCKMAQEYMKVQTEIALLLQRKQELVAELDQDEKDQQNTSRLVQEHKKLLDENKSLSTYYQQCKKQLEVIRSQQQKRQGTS

[2] = molecular target: T2, endogenous TAK1 of primary mouse NK cells (mouse (endogenous in splenic NK cells)) (UniProt Q62073); assay: proximity ligation; in situ PLA (Duolink) in fixed, permeabilised freshly isolated mouse splenic NK cells, rabbit anti-TAK1 with mouse anti-TXNIP or mouse anti-TAB1; with or without Pam3CSK4; WT and Txnip-/- cells for TAK1-TAB1
T2 sequence: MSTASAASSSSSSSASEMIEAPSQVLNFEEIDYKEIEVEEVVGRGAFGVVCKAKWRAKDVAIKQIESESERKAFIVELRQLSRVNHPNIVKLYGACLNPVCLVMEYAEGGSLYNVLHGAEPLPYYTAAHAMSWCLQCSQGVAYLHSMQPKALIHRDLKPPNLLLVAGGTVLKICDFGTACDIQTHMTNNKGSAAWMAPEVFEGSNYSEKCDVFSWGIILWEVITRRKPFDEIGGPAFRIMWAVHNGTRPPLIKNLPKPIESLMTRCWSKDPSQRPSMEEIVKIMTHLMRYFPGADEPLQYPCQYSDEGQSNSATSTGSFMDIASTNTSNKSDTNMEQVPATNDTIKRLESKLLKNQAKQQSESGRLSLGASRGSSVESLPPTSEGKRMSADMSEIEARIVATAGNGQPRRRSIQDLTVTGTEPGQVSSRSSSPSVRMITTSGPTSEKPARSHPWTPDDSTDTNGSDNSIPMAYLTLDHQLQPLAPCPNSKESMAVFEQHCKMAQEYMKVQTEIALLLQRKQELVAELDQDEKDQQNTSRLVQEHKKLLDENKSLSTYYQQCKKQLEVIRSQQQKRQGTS

[3] = molecular target: T1, GST-fused TAK1 (pEBG-TAK1) (human); assay: pull-down; GST pull-down from lysates (RIPA buffer) of transiently cotransfected HEK 293 cells; glutathione Sepharose 4B, 3 h at 4 °C, washed four times; blots with α-FLAG and α-GST

B1: FLAG-TAB2 (protein, UniProt Q9NYJ8 1-693)
chain: MAQGSHQIDFQVLHDLRQKFPEVPEVVVSRCMLQNNNNLDACCAVLSQESTRYLYGEGDLNFSDDSGISGLRNHMTSLNLDLQSQNIYHHGREGSRMNGSRTLTHSISDGQLQGGQSNSELFQQEPQTAPAQVPQGFNVFGMSSSSGASNSAPHLGFHLGSKGTSSLSQQTPRFNPIMVTLAPNIQTGRNTPTSLHIHGVPPPVLNSPQGNSIYIRPYITTPGGTTRQTQQHSGWVSQFNPMNPQQVYQPSQPGPWTTCPASNPLSHTSSQQPNQQGHQTSHVYMPISSPTTSQPPTIHSSGSSQSSAHSQYNIQNISTGPRKNQIEIKLEPPQRNNSSKLRSSGPRTSSTSSSVNSQTLNRNQPTVYIAASPPNTDELMSRSQPKVYISANAATGDEQVMRNQPTLFISTNSGASAASRNMSGQVSMGPAFIHHHPPKSRAIGNNSATSPRVVVTQPNTKYTFKITVSPNKPPAVSPGVVSPTFELTNLLNHPDHYVETENIQHLTDPTLAHVDRISETRKLSMGSDDAAYTQALLVHQKARMERLQRELEIQKKKLDKLKSEVNEMENNLTRRRLKRSNSISQIPSLEEMQQLRSCNRQLQIDIDCLTKEIDLFQARGPHFNPSAIHNFYDNIGFVGPVPPKPKDQRSIIKTPKTQDTEDDEGAQWNCTACTFLNHPALIRCEQCEMPRHF
Q: B1 was tested. Which binding [1] did it give?
A: binds

B2: FLAG-tagged TAB3 (Full) (protein, UniProt Q8N5C8 1-712)
chain: MAQSSPQLDIQVLHDLRQRFPEIPEGVVSQCMLQNNNNLEACCRALSQESSKYLYMEYHSPDDNRMNRNRLLHINLGIHSPSSYHPGDGAQLNGGRTLVHSSSDGHIDPQHAAGKQLICLVQEPHSAPAVVAATPNYNPFFMNEQNRSAATPPSQPPQQPSSMQTGMNPSAMQGPSPPPPPPSYMHIPRYSTNPITVTVSQNLPSGQTVPRALQILPQIPSNLYGSPGSIYIRQTSQSSSGRQTPQSTPWQSSPQGPVPHYSQRPLPVYPHQQNYQPSQYSPKQQQIPQSAYHSPPPSQCPSPFSSPQHQVQPSQLGHIFMPPSPSTTPPHPYQQGPPSYQKQGSHSVAYLPYTASSLSKGSMKKIEITVEPSQRPGTAINRSPSPISNQPSPRNQHSLYTATTPPSSSPSRGISSQPKPPFSVNPVYITYTQPTGPSCTPSPSPRVIPNPTTVFKITVGRATTENLLNLVDQEERSAAPEPIQPISVIPGSGGEKGSHKYQRSSSSGSDDYAYTQALLLHQRARMERLAKQLKLEKEELERLKSEVNGMEHDLMQRRLRRVSCTTAIPTPEEMTRLRSMNRQLQINVDCTLKEVDLLQSRGNFDPKAMNNFYDNIEPGPVVPPKPSKKDSSDPCTIERKARRISVTSKVQADIHDTQAAAADEHRTGSTQSPRTQPRDEDYEGAPWNCDSCTFLNHPALNRCEQCEMPRYT
Q: How did the binding [1] turn out when B2 was run?
A: binds

B3: HA-TXNIP (pHA-TXNIP) (protein, UniProt Q9H3M7 1-391)
chain: MVMFKKIKSFEVVFNDPEKVYGSGEKVAGRVIVEVCEVTRVKAVRILACGVAKVLWMQGSQQCKQTSEYLRYEDTLLLEDQPTGENEMVIMRPGNKYEYKFGFELPQGPLGTSFKGKYGCVDYWVKAFLDRPSQPTQETKKNFEVVDLVDVNTPDLMAPVSAKKEKKVSCMFIPDGRVSVSARIDRKGFCEGDEISIHADFENTCSRIVVPKAAIVARHTYLANGQTKVLTQKLSSVRGNHIISGTCASWRGKSLRVQKIRPSILGCNILRVEYSLLIYVSVPGSKKVILDLPLVIGSRSGLSSRTSSMASRTSSEMSWVDLNIPDTPEAPPCYMDVIPEDHRLESPTTPLLDDMDGSQDSPIFMYAPEFKFMPPPTYTEVDPCILNNNVQ
Q: Which binding [1] does the source give for B3 here?
A: binds

B4: endogenous TAB1 of primary mouse NK cells (protein, UniProt Q8CF89 1-502)
chain: MAAQRRSLLQSEQQPSWTDDLPLCHLSGVGSASNRSYSADGKGTESHPPEDNWLKFRSENNCFLYGVFNGYDGNRVTNFVAQRLSAELLLGQLNTEHTEADVRRVLLQAFDVVERSFLESIDDALAEKASLQSQLPEGVPQHQLPPQYQKILERLKALEREISGGAMAVVAVLLNSKLYVANVGTNRALLCKSTVDGLQVTQLNMDHTTENEDELFRLSQLGLDAGKIKQMGVICGQESTRRIGDYKVKYGYTDIDLLSAAKSKPIIAEPEIHGAQPLDGVTGFLVLMSEGLYKALEAAHGPGQANQEIAAMIDTEFAKQTSLDAVAQAVVDRVKRIHSDTFASGGERAKFCPRHEDMTLLVRNFGYPLGEMSQPTPTPAPGGRVYPVSVPYSSAQSTSKTSVTLSLVMPSQGQMVNGSHSASTLDEATPTLTNQSPTLTLQSTNTHTQSSSSSSDGGLFRSRPAHSLPPGEDGRVEPYVDFAEFYRLWSVDHGEQSVMTAP
Q: B4 was tested. Which binding [2] did it give?
A: binds

B5: endogenous TXNIP of primary mouse NK cells (protein, UniProt Q8BG60 1-397)
chain: MVMFKKIKSFEVVFNDPEKVYGSGEKVAGRVIVEVCEVTRVKAVRILACGVAKVLWMQGSQQCKQTLDYLRYEDTLLLEEQPTAGENEMVIMRPGNKYEYKFGFELPQGPLGTSFKGKYGCVDYWVKAFLDRPSQPTQEAKKNFEVMDLVDVNTPDLMAPVSAKKEKKVSCMFIPDGRVSVSARIDRKGFCEGDDISIHADFENTCSRIVVPKAAIVARHTYLANGQTKVFTQKLSSVRGNHIISGTCASWRGKSLRVQKIRPSILGCNILKVEYSLLIYVSVPGSKKVILDLPLVIGSRSGLSSRTSSMASRTSSEMSWIDLNIPDTPEAPPCYMDIIPEDHRLESPTTPLLDDVDDSQDSPIFMYAPEFQFMPPPTYTEVDPCVLNNNNNNNNVQ
Q: B5 was tested. Which binding [2] did it give?
A: binds

B6: FLAG-tagged TXNIP (1–149) (domain or fragment, UniProt Q9H3M7 1-149)
chain: MVMFKKIKSFEVVFNDPEKVYGSGEKVAGRVIVEVCEVTRVKAVRILACGVAKVLWMQGSQQCKQTSEYLRYEDTLLLEDQPTGENEMVIMRPGNKYEYKFGFELPQGPLGTSFKGKYGCVDYWVKAFLDRPSQPTQETKKNFEVVDLV
Q: B6 was tested. Which binding [3] did it give?
A: binds

B7: FLAG-TAB1 (protein, UniProt Q15750 1-504)
chain: MAAQRRSLLQSEQQPSWTDDLPLCHLSGVGSASNRSYSADGKGTESHPPEDSWLKFRSENNCFLYGVFNGYDGNRVTNFVAQRLSAELLLGQLNAEHAEADVRRVLLQAFDVVERSFLESIDDALAEKASLQSQLPEGVPQHQLPPQYQKILERLKTLEREISGGAMAVVAVLLNNKLYVANVGTNRALLCKSTVDGLQVTQLNVDHTTENEDELFRLSQLGLDAGKIKQVGIICGQESTRRIGDYKVKYGYTDIDLLSAAKSKPIIAEPEIHGAQPLDGVTGFLVLMSEGLYKALEAAHGPGQANQEIAAMIDTEFAKQTSLDAVAQAVVDRVKRIHSDTFASGGERARFCPRHEDMTLLVRNFGYPLGEMSQPTPSPAPAAGGRVYPVSVPYSSAQSTSKTSVTLSLVMPSQGQMVNGAHSASTLDEATPTLTNQSPTLTLQSTNTHTQSSSSSSDGGLFRSRPAHSLPPGEDGRVEPYVDFAEFYRLWSVDHGEQSVVTAP
Q: With B7 as the binder, how does the binding [1] read?
A: binds

B8: FLAG-tagged TXNIP (150C) (domain or fragment, UniProt Q9H3M7 150-391)
chain: DVNTPDLMAPVSAKKEKKVSCMFIPDGRVSVSARIDRKGFCEGDEISIHADFENTCSRIVVPKAAIVARHTYLANGQTKVLTQKLSSVRGNHIISGTCASWRGKSLRVQKIRPSILGCNILRVEYSLLIYVSVPGSKKVILDLPLVIGSRSGLSSRTSSMASRTSSEMSWVDLNIPDTPEAPPCYMDVIPEDHRLESPTTPLLDDMDGSQDSPIFMYAPEFKFMPPPTYTEVDPCILNNNVQ
Q: For B8, which binding [3] is on record?
A: no binding
